Here are results for 89 sequences from the supplement of paper PMC11417369.

Some of the results follow.

This assay relates to PfHDP1 homeodomain (GST-tagged). The assay is described as follows: gcPBM binding intensity (ln(normalized median fluorescence intensity)); higher = stronger DNA binding. In short, it runs like this: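 GST-fused DNA-binding domains of P. falciparum, expressed in E. coli, were applied at about 25 μg on average for 1 h to an Agilent 4 × 180k array of primer-extended double-stranded 36-bp intergenic genomic probes and negative controls. Binding intensity is the highest Masliner-normalised natural-log median intensity across replicate spots of either probe orientation, measured with Alexa488 anti-GST antibody and a 488 nm scan.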
As for “TTTATTCATTTCTAAAAATATTAAAATAGAATGAAT [CACACA_negctrl_site325]”, the “gcPBM binding intensity (ln)” value was 6.07.
Under “TAAAAAAAAATAAATGGTACACAATTAAATGTTTAT [XGTACX_site5255]” stands 6.21; under “CACCATGTTAACAAAGCATGCATCTCTATAGTTTTA [TGCATGCA_site97]”, 6.87; under “AAAAAAAAAAAAAGAACATGCGACTTTAAGAACTGG [TGCATGCA_site792]”, 6.03.
Turning to “CAAATGTGTTCTTCAGGTACAGATACACATTTATGA [XGTACX_site2664]”, the “gcPBM binding intensity (ln)” value was found to be 6.21.
Regarding “TATGAAAATAAAATATGTACATATTTTAAATGTTAT [XGTACX_site7352]”, the “gcPBM binding intensity (ln)” value is 6.68.
To “TAAAAAATTATATATTGTACGAATGCATAAAAAAAA [XGTACX_site4606]” belongs 7.02; to “TTCAAAGGGAAATTAACACACACATATATATATATA [CACACA_site8777]”, 9.18.
Turning to “TTTTTAATCTCATATGTATAATATATTTTTATTAAA [XGTACX_negctrl_site236]”, the “gcPBM binding intensity (ln)” value came to 6.21.
Under “AATTTTAGATTTAGCACACATTTTTTTTTTTTTTTT [CACACA_site6105]” stands 7.45; under TTTATATAAATTTAAGTGCAAAATGAACAAGTGAAA, 10.3.
Under “CCCAAAAAAAATTTATGTACTTATTAAATATATATA [XGTACX_site6455]” stands 6.69.
Under “AAAATATATATTTGTTGTACAATATTAATTATTAAA [XGTACX_site1612]” stands 7.05; under “TTCAATGCTAATTTATGTACATATGTATATAAAATA [XGTACX_site8335]”, 6.28.
As for “TGCAAAGGTGAAAGAACACACAAAAAAAAAAAAAAA [CACACA_site4024]”, the “gcPBM binding intensity (ln)” value turned out to be 6.36.
To “TATGAAATTAGAATTACACACAGGAAAATAAAATGC [CACACA_site6822]” belongs 6.95; to “CCCTCCCCATGTTTAGTGCAAAAATATTTGAAATTG [GTGCAC_site9873]”, 10.
Turning to “TATATATATACCAACACACATACATATATATATATA [CACACA_site1795]”, the “gcPBM binding intensity (ln)” value was 9.04.
As to “TGAATAAATATATATACACACATATCTGTATTTATT [CACACA_site4991]”, the “gcPBM binding intensity (ln)” value stood at 6.37.
Regarding “AAATTTGGCAGACACACACACACACGCACACGCACA [CACACA_site6423]”, the “gcPBM binding intensity (ln)” value is 7.46.
To “ATCATAAATATAGCAACACACGGATTACATAAAATA [CACACA_site2796]” belongs 6.79; to “TTAAAAAAATAATTAACACACACATGTATATCTATA [CACACA_site9026]”, 6.32; to “TTGTAATAAATAAAAGTGCAGATATGGTTCCACTAA [GTGCAC_site9942]”, 6.68.
As for “AATGAACTCACGAGCACACACACACCGATATATATA [CACACA_site4710]”, the “gcPBM binding intensity (ln)” value was determined as 7.03.
For the sequence TATATATATTTAAAGGTGCAGATGCCAGTGTATATT, the “gcPBM binding intensity (ln)” value is 8.07.
To “ATAAATATATTTAAATGTACATAATATATATATATA [XGTACX_site5137]” belongs 8.87; to “ACATATTCATATGGAAGTACGATAATGTAGTCATAT [XGTACX_site7080]”, 6.32; to “ATATATACATACAAATTAATTACGAGGAATATATTA [XGTACX_negctrl_site417]”, 6.53.
“GTAAAAAAATTAAAAATTAACAAGGAATTAAGTATA [CACACA_negctrl_site1688]”: the “gcPBM binding intensity (ln)” value was 6.22.
Consider “GGAACTTATTTTTATACACACATATGTGCATATTAT [CACACA_site629]”, for which the “gcPBM binding intensity (ln)” value amounted to 10.8.
Consider “TATACATATATATACACACACACATATATATATATA [CACACA_site1299]”, for which the “gcPBM binding intensity (ln)” value worked out at 9.3.
To “AAAAAAAATCAAATGGGTACTTATTCTTAATAATAT [XGTACX_site3792]” belongs 6.2; to “TTTGCGTAGAAATGTGTGCACTGATATTTATAATAA [GTGCAC_site9526]”, 9.87; to “ATTTTCCTTTTACCACGTACACATAAAAACGTTATA [XGTACX_site3595]”, 7.09.
To “TGAACTCATAGGAAAACACACATATGGGTAATATAT [CACACA_site187]” belongs 6.78; to “GTTACATACCTATACACACACATATATAAATAAATA [CACACA_site6549]”, 7.08; to “TAACAAAACATAGATTGTACATATTATAAATGTATA [XGTACX_site1543]”, 6.48.
Turning to “CAATATTATATTACTTGTACACATATGTAGTTTCGA [XGTACX_site8945]”, the “gcPBM binding intensity (ln)” value amounted to 6.67.
To “TTTCCCATAGGAAAAACACACATATATTATATATAA [CACACA_site1981]” belongs 6.22; to “CAAAATATACACACGTGTACACAAATATTTACAAAA [XGTACX_site2257]”, 7.05; to “ATATAAAAATACAGGTGTACATTTTTTCATATTTAT [XGTACX_site6959]”, 6.53.
Consider “TATTCTTATCTTACCACACACAATGTACGAAAAGAT [CACACA_site6296]”, for which the “gcPBM binding intensity (ln)” value is 6.65.
For “TTATGTCGTAAATACACACATACATATACATACACA [CACACA_site1374]”, the “gcPBM binding intensity (ln)” value worked out at 6.92.
Under “TTGTCACTAATAGATGCATGCAATCATTCCATTTTT [TGCATGCA_site938]” stands 6.84.
Under “AATAAATTGAAACACACACACACATATATATATATA [CACACA_site848]” stands 9.16; under “TTGTAATGATATATTTGTACTTAATATAATTGTATA [XGTACX_site2748]”, 6.33.
Consider “ATATCTATATTTTAAAGTACGTAGTAAAAAGAAAAA [XGTACX_site4323]”, for which the “gcPBM binding intensity (ln)” value was determined as 6.82.
To “TTTTTTTTTTTTCTGTGTACATATATAATATATATA [XGTACX_site1592]” belongs 6.63.
As to “TTTTATGAAAAGATGAGTACACAATACTTTTTAATT [XGTACX_site8253]”, the “gcPBM binding intensity (ln)” value was 6.09.
To “ATCATTTTTTATGCGTGTACATAAATTTATTAGGTT [XGTACX_site2786]” belongs 6.69; to “TTTTTTGTTAAACCGGTGCATATAAATATATATATA [GTGCAC_site9989]”, 10.2.
To “TAATTATTACACGGTATTATATATAATATGTTAAAA [GTGCAC_negctrl_site134]” belongs 6.6; to “CACAAAAAAGTTCATACACACAACATATTTATATAT [CACACA_site2887]”, 6.51; to “TTTTTCAATTGTAGTGGTACAGATATAATTATCTCT [XGTACX_site5500]”, 6.64.
As to “TGCATGTAATTTTTGTGTCCACATAAAATATTTAAT [XGTACX_site5652]”, the “gcPBM binding intensity (ln)” value was 6.41.
On to “TTCTATATATTATATGCATGTAAAACATATTAAAAT [TGCATGCA_site662]”, for which the “gcPBM binding intensity (ln)” value is 6.59.
To “TTTTTATGAAAATAAACACACGATTTATTATATATA [CACACA_site1311]” belongs 6.2; to “TTTATTGCTCTATATGCACACCTTAATTCTTCATTT [CACACA_site8682]”, 11.1.
As to “GAAGATTTATCTTGCACACGCAAAAAAAAAAAAAAA [CACACA_site154]”, the “gcPBM binding intensity (ln)” value is 8.55.
Under “GAAAATATTTCTATCTGTACTTATTTATATATATAT [XGTACX_site7317]” stands 8.51; under “TACGTAAATTCTAATACACACTATAGGATATTCTGC [CACACA_site7248]”, 6.41; under “AAAAATAATCATAGTAGTACAAAAAAAAAAAAAAAA [XGTACX_site3736]”, 6.44.
Turning to “ATGTACTATGATAATGCATGCAATAATACATTTTTA [TGCATGCA_site318]”, the “gcPBM binding intensity (ln)” value was determined as 6.48.
Consider “TTATTATGTATATATGCACACAATACCCAAAACAAC [CACACA_site80]”, for which the “gcPBM binding intensity (ln)” value was 9.84.
To “TAATATATATATAATACACACTATTTTAATCACATA [CACACA_site4849]” belongs 6.59; to “TCGAACATTAACATAACACACATATATATATATATA [CACACA_site2900]”, 9.29.
To “AAGGTTATTTATATATGTACTTAATATATATATATG [XGTACX_site886]” belongs 6.32; to “TTTATAATATACATAACACACAATTATTATTTCTTA [CACACA_site3624]”, 6.36; to “TTTTTTTCCTTATCTATATATAATCAAATTTTCTAC [CACACA_negctrl_site867]”, 6.51.
“AACTTTTAGAAGAACACACACATATAGATTATGACC [CACACA_site6256]”: the “gcPBM binding intensity (ln)” value came out at 6.82.
Under “TTATAACAAATATAGAGTACTAAAATTTTACGTTAT [XGTACX_site1410]” stands 6.34; under “ACATGTATTTATAAGAGTACATATGTGTGCATGTTT [XGTACX_site7946]”, 10.4.
As to “TTTATATATTATATAAATATTATTATACTTTAAATA [TGCATGCA_negctrl_site236]”, the “gcPBM binding intensity (ln)” value stood at 5.97.
Under “TTAATTTATTTATGCACACATATATAATTACACATA [CACACA_site4544]” stands 10.7; under “TATAACTATTTATAATGTACTCATGTATAATTATAT [XGTACX_site7913]”, 6.38; under “TGCTATAATTTATATACACACAAATATATACTCATA [CACACA_site6111]”, 6.51.
Under “TTTTATCGATATATCTGTACATATTACTTATAATAA [XGTACX_site57]” stands 6.98.
Under “ATGCTTTTGTCATGTGCACACACGTATATATTATAT [CACACA_site4163]” stands 11; under “AAAAAAAAAAAAAATGCATGTGCGTAAATAATAATA [TGCATGCA_site793]”, 7.55; under AGTATTTTAATTTCAGTGCATTTTATTCTATAATTA, 8.98.
Turning to “ATATATATCTATATTTGTACATATTACATTCAAGTT [XGTACX_site1749]”, the “gcPBM binding intensity (ln)” value was determined as 6.82.
To “TTTAGGAAAGGCGGCACACATTTATATATTTATTTA [CACACA_site5931]” belongs 6.11; to “AAGTTTTCTTACAGATGTACTTTTTAAAAATAAACT [XGTACX_site6632]”, 6.67.
To “AAAAAAAAAAAAAGATGTACATATATTTTTATTATA [XGTACX_site654]” belongs 6.3.
Under “AAGGATATAAAAAAACGTACGTACGATAATATAATT [XGTACX_site1292]” stands 6.58; under “AACCATTCTTCTAATTGTACATTGAAAAATCATGAT [XGTACX_site3854]”, 6.47.
As to “TTAGCAACTATTACTACACACATTTGTATATAATTT [CACACA_site1591]”, the “gcPBM binding intensity (ln)” value turned out to be 6.61.
To “TTTTTTTTTTCTTGTTGTACTTTTAATAATTCATAT [XGTACX_site4704]” belongs 6.79; to “GAAATTTTTAAAAAGGTGCTTTTAACAAAAATTATT [GTGCAC_site9687]”, 6.05.
